Publication PMC9911399, “Two distinct binding modes provide the RNA-binding protein RbFox with extraordinary sequence specificity”
Where a chain is given by its changes, count along the chain named. This is one part of the list.

T1: RBFOX1 RRM RbFoxmut (Fox-RRM*) (Homo sapiens, UniProt Q9NWB1 109-208, R118D;E147R;N151S;E152T)
T1 sequence: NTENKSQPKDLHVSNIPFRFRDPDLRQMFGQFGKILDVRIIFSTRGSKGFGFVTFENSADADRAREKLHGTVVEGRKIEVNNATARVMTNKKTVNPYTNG

B1: UACUUGC (DNA:RNA)
RNA: GGGAGACCGGAAUUCAGAUUGUCCUACUUGCUUAAAUCCCGUCGUAGCCACCA
DNA 1: CAATCTGAATTCCGGTCTCCC
DNA 2: TGGTGGCTACGACGGGATT
B2: UAUCCUC (DNA:RNA)
RNA: B1 RNA with C27U, U28C, U29C, G30U
DNA 1: CAATCTGAATTCCGGTCTCCC
DNA 2: TGGTGGCTACGACGGGATT
B3: CCUUCGG (DNA:RNA)
RNA: B1 RNA with U25C, A26C, C27U, U29C, C31G
DNA 1: CAATCTGAATTCCGGTCTCCC
DNA 2: TGGTGGCTACGACGGGATT
B4: CGAAGCC (DNA:RNA)
RNA: B1 RNA with U25C, A26G, C27A, U28A, U29G, G30C
DNA 1: CAATCTGAATTCCGGTCTCCC
DNA 2: TGGTGGCTACGACGGGATT
B5: CAUUUGC (DNA:RNA)
RNA: B1 RNA with U25C, C27U
DNA 1: CAATCTGAATTCCGGTCTCCC
DNA 2: TGGTGGCTACGACGGGATT
B6: CUGUCCA (DNA:RNA)
RNA: B1 RNA with U25C, A26U, C27G, U29C, G30C, C31A
DNA 1: CAATCTGAATTCCGGTCTCCC
DNA 2: TGGTGGCTACGACGGGATT
B7: UGCAGUA (DNA:RNA)
RNA: B1 RNA with A26G, U28A, U29G, G30U, C31A
DNA 1: CAATCTGAATTCCGGTCTCCC
DNA 2: TGGTGGCTACGACGGGATT
B8: GUGGGAA (DNA:RNA)
RNA: GGGAGACCGGAAUUCAGAUUGUCCGUGGGAAUUAAAUCCCGUCGUAGCCACCA
DNA 1: CAATCTGAATTCCGGTCTCCC
DNA 2: TGGTGGCTACGACGGGATT
B9: CCAUGUC (DNA:RNA)
RNA: B1 RNA with U25C, A26C, C27A, U29G, G30U
DNA 1: CAATCTGAATTCCGGTCTCCC
DNA 2: TGGTGGCTACGACGGGATT
B10: GGACCCU (DNA:RNA)
RNA: B8 RNA with U26G, G27A, G28C, G29C, A30C, A31U
DNA 1: CAATCTGAATTCCGGTCTCCC
DNA 2: TGGTGGCTACGACGGGATT
B11: AUGCAUU (DNA:RNA)
RNA: B8 RNA with G25A, G28C, G29A, A30U, A31U
DNA 1: CAATCTGAATTCCGGTCTCCC
DNA 2: TGGTGGCTACGACGGGATT
B12: UUACGGG (DNA:RNA)
RNA: B8 RNA with G25U, G27A, G28C, A30G, A31G
DNA 1: CAATCTGAATTCCGGTCTCCC
DNA 2: TGGTGGCTACGACGGGATT
B13: AUCUCCU (DNA:RNA)
RNA: B1 RNA with U25A, A26U, U29C, G30C, C31U
DNA 1: CAATCTGAATTCCGGTCTCCC
DNA 2: TGGTGGCTACGACGGGATT
B14: AGGCUAA (DNA:RNA)
RNA: B8 RNA with G25A, U26G, G28C, G29U
DNA 1: CAATCTGAATTCCGGTCTCCC
DNA 2: TGGTGGCTACGACGGGATT
B15: GAGUUUU (DNA:RNA)
RNA: B1 RNA with U25G, C27G, G30U, C31U
DNA 1: CAATCTGAATTCCGGTCTCCC
DNA 2: TGGTGGCTACGACGGGATT
B16: AUCGAAG (DNA:RNA)
RNA: B8 RNA with G25A, G27C, G29A, A31G
DNA 1: CAATCTGAATTCCGGTCTCCC
DNA 2: TGGTGGCTACGACGGGATT
B17: UAGCUGA (DNA:RNA)
RNA: B1 RNA with C27G, U28C, C31A
DNA 1: CAATCTGAATTCCGGTCTCCC
DNA 2: TGGTGGCTACGACGGGATT
B18: GGAGACU (DNA:RNA)
RNA: B8 RNA with U26G, G27A, G29A, A30C, A31U
DNA 1: CAATCTGAATTCCGGTCTCCC
DNA 2: TGGTGGCTACGACGGGATT
B19: CGUUCGG (DNA:RNA)
RNA: B1 RNA with U25C, A26G, C27U, U29C, C31G
DNA 1: CAATCTGAATTCCGGTCTCCC
DNA 2: TGGTGGCTACGACGGGATT
B20: GUGGGAU (DNA:RNA)
RNA: B8 RNA with A31U
DNA 1: CAATCTGAATTCCGGTCTCCC
DNA 2: TGGTGGCTACGACGGGATT
B21: UCUUUUC (DNA:RNA)
RNA: B1 RNA with A26C, C27U, G30U
DNA 1: CAATCTGAATTCCGGTCTCCC
DNA 2: TGGTGGCTACGACGGGATT
B22: UAAAGAG (DNA:RNA)
RNA: B8 RNA with G25U, U26A, G27A, G28A, A31G
DNA 1: CAATCTGAATTCCGGTCTCCC
DNA 2: TGGTGGCTACGACGGGATT
B23: UUAUACA (DNA:RNA)
RNA: B8 RNA with G25U, G27A, G28U, G29A, A30C
DNA 1: CAATCTGAATTCCGGTCTCCC
DNA 2: TGGTGGCTACGACGGGATT
B24: CCAGUUU (DNA:RNA)
RNA: B8 RNA with G25C, U26C, G27A, G29U, A30U, A31U
DNA 1: CAATCTGAATTCCGGTCTCCC
DNA 2: TGGTGGCTACGACGGGATT
B25: AAAGCAA (DNA:RNA)
RNA: B8 RNA with G25A, U26A, G27A, G29C
DNA 1: CAATCTGAATTCCGGTCTCCC
DNA 2: TGGTGGCTACGACGGGATT
B26: GUAUUUU (DNA:RNA)
RNA: B8 RNA with G27A, G28U, G29U, A30U, A31U
DNA 1: CAATCTGAATTCCGGTCTCCC
DNA 2: TGGTGGCTACGACGGGATT
B27: GUUUCUG (DNA:RNA)
RNA: B8 RNA with G27U, G28U, G29C, A30U, A31G
DNA 1: CAATCTGAATTCCGGTCTCCC
DNA 2: TGGTGGCTACGACGGGATT
B28: UUGAUAU (DNA:RNA)
RNA: B8 RNA with G25U, G28A, G29U, A31U
DNA 1: CAATCTGAATTCCGGTCTCCC
DNA 2: TGGTGGCTACGACGGGATT
B29: GGCGCAC (DNA:RNA)
RNA: B8 RNA with U26G, G27C, G29C, A31C
DNA 1: CAATCTGAATTCCGGTCTCCC
DNA 2: TGGTGGCTACGACGGGATT
B30: ACCGCGG (DNA:RNA)
RNA: B1 RNA with U25A, A26C, U28G, U29C, C31G
DNA 1: CAATCTGAATTCCGGTCTCCC
DNA 2: TGGTGGCTACGACGGGATT
B31: GUAUCGU (DNA:RNA)
RNA: B8 RNA with G27A, G28U, G29C, A30G, A31U
DNA 1: CAATCTGAATTCCGGTCTCCC
DNA 2: TGGTGGCTACGACGGGATT

Each binder was assayed against T1, RBFOX1 RRM RbFoxmut (Fox-RRM*) (assay: EMSA; HiTS-Eq, 1 nM pool, 10 min; buffer printed only for the single-RNA assays: 10 mM Tris pH 7.5, 150 mM NaCl, 3.4 mM EDTA, 0.001% NP-40, 30 C). Conditions: tags: His6 N-terminal (pET28a); label: 5' 32P.
How it was run: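 Purified RbFox RRM (wild type or mutant) was equilibrated for 10 min in 50 µL with 1 nM of a 5′-radiolabelled pool of RNA with 7 randomized nucleotides, its flanks annealed to DNA oligonucleotides, across increasing protein concentrations. Free RNA was separated by 8% native PAGE, excised, reverse-transcribed, PCR-barcoded and sequenced on an Illumina HiSeq 2500. Relative association constants came from read-count changes of each variant against the control reaction, normalised to the cognate motif.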

| Binder | binding signal |
| --- | --- |
| B1 | 0.131 KA relative to UGCAUGU |
| B2 | 0.0711 KA relative to UGCAUGU |
| B3 | 0.0583 KA relative to UGCAUGU |
| B4 | 0.125 KA relative to UGCAUGU |
| B5 | 0.133 KA relative to UGCAUGU |
| B6 | 0.128 KA relative to UGCAUGU |
| B7 | 0.152 KA relative to UGCAUGU |
| B8 | 0.151 KA relative to UGCAUGU |
| B9 | 0.17 KA relative to UGCAUGU |
| B10 | 0.0554 KA relative to UGCAUGU |
| B11 | 0.124 KA relative to UGCAUGU |
| B12 | 0.0998 KA relative to UGCAUGU |
| B13 | 0.0809 KA relative to UGCAUGU |
| B14 | 0.0915 KA relative to UGCAUGU |
| B15 | 0.0926 KA relative to UGCAUGU |
| B16 | 0.137 KA relative to UGCAUGU |

| Binder | binding signal |
| --- | --- |
| B17 | 0.0895 KA relative to UGCAUGU |
| B18 | 0.0746 KA relative to UGCAUGU |
| B19 | 0.115 KA relative to UGCAUGU |
| B20 | 0.103 KA relative to UGCAUGU |
| B21 | 0.0759 KA relative to UGCAUGU |
| B22 | 0.0748 KA relative to UGCAUGU |
| B23 | 0.0696 KA relative to UGCAUGU |
| B24 | 0.0755 KA relative to UGCAUGU |
| B25 | 0.0635 KA relative to UGCAUGU |
| B26 | 0.118 KA relative to UGCAUGU |
| B27 | 0.125 KA relative to UGCAUGU |
| B28 | 0.114 KA relative to UGCAUGU |
| B29 | 0.0609 KA relative to UGCAUGU |
| B30 | 0.0849 KA relative to UGCAUGU |
| B31 | 0.461 KA relative to UGCAUGU |
